Data as given in the supplement of paper PMC4967469.

What was measured:
Test in all cases: Viability of human cancer cell lines after 72 h of drug (GDSC screen)
[1] = compound: C#Cc1cccc(Nc2ncnc3cc(OC)c(OCCCCCCC(=O)NO)cc23)c1 [CUDC-101]; settings: top dose 5.12 µM; top dose inferred
Protocol: (§1)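 Human cancer cell lines in 384-well plates, medium with 10% serum, drug for 72 h over a 256-fold dose range (nine 2-fold or five 4-fold steps up to the top dose). Adherent lines were fixed and stained with the nucleic acid dye Syto60, suspension lines read with resazurin; signal relative to control wells, capped at 0 and 100%. One two-parameter sigmoid per drug and line, fitted in a mixed model over all curves with the slope shared within a line.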

[2] = compound: CC(C)(C)c1cc(NC(=O)Nc2ccc(-c3cn4c(n3)sc3cc(OCCN5CCOCC5)ccc34)cc2)no1 [AC220]; settings: top dose 1.024 µM; top dose inferred
Protocol: as §1

[3] = compound: Fc1cc(-c2ccnc(Nc3ccc(-n4cnc(N5CCOCC5)n4)cc3)n2)cc(N2CCOCC2)c1 [JNK-9L]; settings: top dose 5.12 µM; top dose inferred
Protocol: as §1

[4] = compound: NCC(=O)Nc1ccc(-n2nc(C(F)(F)F)cc2-c2ccc3c(ccc4ccccc43)c2)cc1 [OSU-03012]; settings: top dose 16 µM; top dose inferred
Protocol: as §1

[5] = compound: O=c1[nH]cc(F)c(=O)[nH]1 [5-Fluorouracil]; settings: top dose 32 µM; top dose inferred
Protocol: as §1

[6] = compound: OC[C@H](Cc1ccccc1)Nc1nc(Oc2ccc3c(c2)CCC3)nc2c1ncn2Cc1ccc(-c2ccccc2)cc1 [QS11]; settings: top dose 10.24 µM
Protocol: as §1

[7] = compound: COc1cc(F)c(F)c(Nc2ccc(I)cc2F)c1NS(=O)(=O)C1(C[C@H](O)CO)CC1 [RDEA119]; settings: top dose 5 µM, top dose inferred
Protocol: as §1

Row | Cell Line | AUC [1] | IC50 [1] | AUC [2] | IC50 [2] | AUC [3] | IC50 [3] | AUC [4] | IC50 [4] | AUC [5] | IC50 [5] | AUC [6] | IC50 [6] | AUC ([7]; screen: GDSC drug entry 1526) | IC50 ([7]; screen: GDSC drug entry 1526) | AUC ([7]; screen: GDSC drug entry 1014) | IC50 ([7]; screen: GDSC drug entry 1014)
1 | H2803 (mesothelioma, adherent) | 0.933 | > 5.12 µM | 0.982 | > 1.02 µM | 0.633 | 0.794 µM | 0.848 | 15 µM | 0.974 | > 32 µM | 0.931 | > 10.2 µM | – | – | – | –
2 | H2804 (mesothelioma, adherent) | 0.765 | 2.05 µM | 0.965 | > 1.02 µM | 0.584 | 0.556 µM | 0.818 | 10.2 µM | 0.962 | > 32 µM | 0.982 | > 10.2 µM | – | – | – | –
3 | HCC1599 (breast, suspension) | 0.375 | 0.138 µM | 0.966 | > 1.02 µM | 0.53 | 0.391 µM | 0.765 | 6.68 µM | 0.834 | 25.3 µM | 0.922 | > 10.2 µM | – | – | – | –
4 | HCC-33 (small cell lung carcinoma, adherent) | 0.411 | 0.181 µM | 0.988 | > 1.02 µM | 0.653 | 0.853 µM | 0.75 | 5.3 µM | 0.859 | 27 µM | 0.928 | > 10.2 µM | – | – | – | –
5 | IM-95 (stomach, adherent) | 0.544 | 0.426 µM | 0.968 | > 1.02 µM | 0.478 | 0.277 µM | 0.666 | 3 µM | 0.81 | 18.2 µM | 0.878 | > 10.2 µM | – | – | – | –
6 | IST-MES1 (mesothelioma, adherent) | 0.714 | 1.3 µM | 0.974 | > 1.02 µM | 0.749 | 1.67 µM | 0.864 | 14.1 µM | 0.901 | > 32 µM | 0.976 | > 10.2 µM | – | – | – | –
7 | KMS-12-BM (myeloma, suspension) | 0.266 | 0.0799 µM | 0.981 | > 1.02 µM | 0.604 | 0.585 µM | 0.741 | 4.21 µM | 0.855 | 18.9 µM | 0.917 | > 10.2 µM | – | – | – | –
8 | KP-4 (pancreas, adherent) | – | – | 0.988 | > 1.02 µM | 0.521 | 0.364 µM | 0.745 | 4.87 µM | 0.85 | 22.7 µM | 0.894 | > 10.2 µM | 0.892 | > 5 µM | – | –
9 | KP-N-YS (neuroblastoma, adherent) | 0.587 | 0.575 µM | 0.936 | > 1.02 µM | 0.605 | 0.651 µM | 0.597 | 1.93 µM | 0.623 | 4.59 µM | 0.774 | 4.63 µM | – | – | – | –
10 | NB6 (neuroblastoma, adherent) | – | – | 0.98 | > 1.02 µM | 0.662 | 1.01 µM | 0.674 | 3.43 µM | 0.863 | > 32 µM | 0.847 | > 10.2 µM | 0.91 | > 5 µM | 0.983 | > 5 µM

The IC50 comes from the fitted curve, where viability falls to half of the control; fits outside the tested doses are given as limits. AUC is the area under the same curve over the 256-fold range up to the top dose, as a fraction; it is 1 without any effect and falls as sensitivity rises. For some assays here: The top dose, if marked as inferred, is not printed in the source and was worked back from the curve model. For some assays here: Drugs with an entry number were screened twice under separate entries, and the two screens often disagree.
